Results reported in patent EP0452101B1, “Spiro bridged and unbridged heterocyclic compounds” (ISRAEL INSTITUTE FOR BIOLOGICAL RESEARCH, priority 1990, dated 1991).
Like-named read-outs stand apart in the source and are kept apart here.

Assays:
[1] = system: guinea-pig ileum preparation; settings: for EPMRACh: relative to ACh; for IC50: antagonist
[2] = system: guinea-pig ileum preparation; test: tissue or blood; settings: Cavia porcellus
[3] = at the highest conc. tested (column Highest conc.)
[4] = at the lowest conc. tested (column Lowest conc.)

Row | SMILES | Remarks [1] | agonistic and antagonistic activities [1] | intensity of contractions [1, 4] | EC50 [2] [nM] | further results
1 | CCC1=NCC2(CN3CCC2CC3)O1 (racemic) [AF123, 2-Ethyl spiro(1,3 oxazoline 5,3')quinuclidine] | Blocked reversibility ACh-induced contractions | antagonist | - |  | intensity of contractions [1, 3]: -
2 | CC1=NCC2(CN3CCC2CC3)O1 (racemic) [AF125, 2-Methyl-spiro(1,3 oxazoline-5,3')quinuclidine] |  |  |  | 1300 | EPMRACh [1]: about 14
3 | CC1OC2(CS1)CN1CCC2CC1 (stereo not drawn) [AF102B, cis-2-methylspiro(1,3-oxathiolane-5',3)quinuclidine, reference compound] |  |  |  |  | EPMRACh [1]: 50-100
4 | NC1=NCC2(CN3CCC2CC3)O1 (centres unmarked) [AF125(N), 2-Amino-spiro(1,3-oxazoline-5,3')quinuclidine] | Full agonist; contractions were blocked by atropine | active as an agonist | + |  | 
5 | c1ccc(C2=NCC3(CN4CCC3CC4)O2)cc1 (centres unmarked) [AF125(Ph), 2-Phenyl-spiro(1,3-oxazoline-5,3')quinuclidine] | Antagonist | antagonist | - |  | IC50 [1]: 700 nM; IC50 ([1]; listed as 15): 900 nM; intensity of contractions [1, 3]: -
6 | CC1=NCC2(CCN(C)CC2)O1 [AF150, 2-Methyl-spiro(1,3-oxazoline-5,4')-1'-methylpiperidine] |  | full muscarinic agonist |  | 800 | maximal contraction of the ileum ([1]; ACh=100%): 130%
7 | CC1=NC2(CCN(C)CC2)CO1 [AF151, 1-methylpiperidine-4-spiro-4'-(2'-methyl-1',3'-oxazoline)] |  | full muscarinic agonist |  | 3000 | 
8 | CCC1=NC2(CCN(C)CC2)CO1 [Example 8, 1-Methylpiperidine-4-spiro-4'-(2'-ethyl-1',3'-oxazoline)] | Full agonist; contractions were blocked by atropine |  | + |  | 
